Values quoted from earlier work as cited in PubChem BioAssay AID1259409 (Chemical Carcinogenesis Research Information System (CCRIS), 2018).
Not every entry of the source has a single result; some have several. Only these are listed. An entry can have further records. Values given together do not match, cause unknown; they may come from other doses, times, organisms or constructs than stated.

Tested on: rodent chemically induced tumor inhibition, incidence and multiplicity
Experiment: CCRIS tumor inhibitor studies
Excerpt: The CCRIS database contains chemical records with carcinogenicity, mutagenicity, tumor promotion, and tumor inhibition test results. It was developed by the National Cancer Institute (NCI). Data are derived from studies cited in primary journals, current awareness tools, NCI reports, and other sources. Test results have been reviewed by experts in carcinogenesis and mutagenesis.
CCRIS provides historical information from the years 1985 - 2011. It is no longer updated.
This is an archive assay for CCRIS tumor inhibitor studies.

Question: What does the source list for O=[Se](O)O?
Answer: tumour outcome (control, treated, inhibition, significance) (Carcinogen: 7,12-DIMETHYLBENZ[A]ANTHRACENE, 57-97-6, Dose [Inhibitor]: 5 PPM IN 5% CORN OIL DIET DAILY STARTING 29 D BEFORE CARCINOGEN TREATMENT AND CONTINUING FOR DURATION OF STUDY (STUDY DU, Route [Inhibitor]: ORAL, Species: RAT, Strain/Sex: SPRAGUE-DAWLEY/FEMALE, Target Tissue: Type of Lesion: MAMMARY GLAND: ADENOCARCINOMA, Dose [Carcinogen]: 10 MG IN CORN OIL ONCE AT 50 D OF AGE, Promoter: NONE USED): 21/30 (70%), 7/30 (23%), 67%, p<0.001 and 68%, 25%, 63%, p<0.01; tumour outcome (control, treated, inhibition, significance) (Carcinogen: 7,12-DIMETHYLBENZ[A]ANTHRACENE, 57-97-6, Dose [Inhibitor]: 5 PPM IN 25% CORN OIL DIET DAILY STARTING 29 D BEFORE CARCINOGEN TREATMENT AND CONTINUING FOR DURATION OF STUDY (STUDY D, Route [Inhibitor]: ORAL, Species: RAT, Strain/Sex: SPRAGUE-DAWLEY/FEMALE, Target Tissue: Type of Lesion: MAMMARY GLAND: ADENOCARCINOMA, Dose [Carcinogen]: 10 MG IN CORN OIL ONCE AT 50 D OF AGE, Promoter: NONE USED): 30/30 (100%), 16/29 (55%), 45%, p<0.001 and 96%, 48%, 50%, p<0.01

Question: With c1ccc2c(Cc3c[nH]c4ccccc34)c[nH]c2c1 as the compound, how does the “tumour outcome (control, treated, inhibition, significance)” value (Carcinogen: 7,12-DIMETHYLBENZ[A]ANTHRACENE, 57-97-6, Dose [Inhibitor]: 0.05 MMOL IN 1 ML DIMETHYL SULFOXIDE ONCE 20 HR PRIOR TO CARCINOGEN ADMINISTRATION FOLLOWED BY A 14 WK OBSERVATION PERIO, Route [Inhibitor]: GAVAGE, Species: RAT, Strain/Sex: SPRAGUE-DAWLEY/FEMALE, Target Tissue: Type of Lesion: MAMMARY GLAND: TUMOR, Dose [Carcinogen]: 12 MG IN 1 ML OLIVE OIL ONCE, Promoter: NONE USED) read?
Answer: 91%, 27%, 70%, p<0.01 and 60%, 36%, 40%, not significant

Question: Which “tumour outcome (control, treated, inhibition, significance)” value (Carcinogen: 7,12-DIMETHYLBENZ(A)ANTHRACENE, 57-97-6, Dose [Inhibitor]: 0.3% IN DIET FROM WEANING ONWARD (STUDY DURATION: 6 MO AFTER CARCINOGEN ADMINISTRATION), Route [Inhibitor]: ORAL, Species: RAT, Strain/Sex: SPRAGUE-DAWLEY/FEMALE, Target Tissue: Type of Lesion: MAMMARY GLAND: TUMOR, Dose [Carcinogen]: 10 MG/RAT IN 1 ML STRIPPED CORN OIL, SINGLE DOSE ON D 50 FOLLOWING 24 HR FASTING PERIOD, Promoter: NONE USED) does the source give for CCCOC(=O)c1cc(O)c(O)c(O)c1 here?
Answer: 100%, 73%, 27%, not calculated and 70%, 33%, 53%, not calculated and 40%, 10%, 75%, not calculated

Question: Which “tumour outcome (control, treated, inhibition, significance)” value (Carcinogen: N-METHYL-N-NITROSOUREA, 684-93-5, Dose [Inhibitor]: 150 PPM IN DRINKING WATER DAILY STARTING 15 D PRIOR TO CARCINOGEN TREATMENT AND CONTINUING THROUGH END OF THE STUDY (STU, Route [Inhibitor]: ORAL, Species: RAT, Strain/Sex: SPRAGUE-DAWLEY/FEMALE, Target Tissue: Type of Lesion: MAMMARY GLAND: PAPILLARY CARCINOMA, Dose [Carcinogen]: 5 MG/100 G BW ONCE, Promoter: NONE USED) does the source give for [O]=[W](=[O])([OH])[OH] here?
Answer: 50%, 79%, -58%, p<0.05 and 91%, 96%, -5%, not significant

Question: For Cc1cc(C(C)(C)C)c(O)c(C(C)(C)C)c1, which “tumour outcome (control, treated, inhibition, significance)” value (Carcinogen: 7,12-DIMETHYLBENZ(A)ANTHRACENE, 57-97-6, Dose [Inhibitor]: 0.3% BHT IN DIET FROM WEANING ONWARD (STUDY DURATION: 6 MO AFTER CARCINOGEN ADMINISTRATION), Route [Inhibitor]: ORAL, Species: RAT, Strain/Sex: SPRAGUE-DAWLEY/FEMALE, Target Tissue: Type of Lesion: MAMMARY GLAND: ADENOCARCINOMA, Dose [Carcinogen]: 10 MG/RAT IN 1 ML STRIPPED CORN OIL, SINGLE DOSE ON D 50 FOLLOWING 24 HR FASTING PERIOD, Promoter: NONE USED) is on record?
Answer: 40%, 26%, 35%, not calculated and 70%, 33%, 53%, not calculated

Question: With Cn1c(=O)c2c(ncn2C)n(C)c1=O as the compound, how does the “tumour outcome (control, treated, inhibition, significance)” value (Carcinogen: 7,12-DIMETHYLBENZ[A]ANTHRACENE, 57-97-6, Dose [Inhibitor]: 0, 500 MG/L IN DRINKING WATER OF 84 DAY OLD RATS WHICH WERE OVARIECTOMIZED AT 72 D OF AGE (STUDY DURATION: 130 D), Route [Inhibitor]: ORAL, Species: RAT, Strain/Sex: SPRAGUE-DAWLEY/FEMALE, Target Tissue: Type of Lesion: MAMMARY GLAND: CARCINOMA, Dose [Carcinogen]: 10 MG/ML IN CORN OIL ONCE TO 53 DAY OLD RATS, Promoter: 17BETA-ESTRADIOL, 50-28-2) read?
Answer: 63%, 60%, 5%, not significant and 48%, 43%, 10%, not significant and 12%, 10%, 17%, not significant

Question: What about the “tumour outcome (control, treated, inhibition, significance)” value (Carcinogen: 7,12-DIMETHYLBENZ[A]ANTHRACENE, 57-97-6, Dose [Inhibitor]: 0, 500 MG/L IN DRINKING WATER OF 84 DAY OLD RATS WHICH WERE OVARIECTOMIZED AT 72 D OF AGE (STUDY DURATION: 130 D), Route [Inhibitor]: ORAL, Species: RAT, Strain/Sex: SPRAGUE-DAWLEY/FEMALE, Target Tissue: Type of Lesion: MAMMARY GLAND: FIBROADENOMA, Dose [Carcinogen]: 10 MG/ML IN CORN OIL ONCE TO 53 DAY OLD RATS, Promoter: 17BETA-ESTRADIOL, 50-28-2) of the same compound?
Answer: 54%, 14%, 74%, p<0.001 and 81%, 57%, 30%, p<0.05 and 10%, 2%, 80%, not significant

Question: With C=C1/C(=C\C=C2/CCC[C@]3(C)[C@@H]([C@H](C)CCCC(C)(C)O)CC[C@@H]23)C[C@@H](O)C[C@@H]1O as the compound, how does the “tumour outcome (control, treated, inhibition, significance)” value (Carcinogen: 7,12-DIMETHYLBENZ[A]ANTHRACENE, 57-97-6, Dose [Inhibitor]: 0.5 NMOL 2/WK STARTING 1 WK AFTER CARCINOGEN TREATMENT AND CONTINUING FOR 9 WK (STUDY DURATION: 10 WK), Route [Inhibitor]: DERMAL, Species: MOUSE, Strain/Sex: CD-1/FEMALE, Target Tissue: Type of Lesion: SKIN: PAPILLOMA, Dose [Carcinogen]: 20 NMOL ONCE, Promoter: 12-O-TETRADECANOYLPHORBOL-13-ACETATE, 16561-29-8) read?
Answer: 47%, 20%, 57%, not significant and 77%, 34%, 56%, p<0.05

Question: With O=C1O[C@H]([C@@H](O)CO)C(O)=C1O as the compound, how does the “tumour outcome (control, treated, inhibition, significance)” value (Carcinogen: 7,12-DIMETHYLBENZ[A]ANTHRACENE, 57-97-6, Dose [Inhibitor]: 0.2% IN 0.25 ML OF 20:80 WATER-ACETONE DAILY FOR 20 D BEGINNING 1 D POST CARCINOGEN TREATMENT (STUDY DURATION: 21 WK), Route [Inhibitor]: DERMAL, Species: MOUSE, Strain/Sex: ICR/FEMALE, Target Tissue: Type of Lesion: SKIN: PAPILLOMA, Dose [Carcinogen]: 0.125 MG IN 0.25 ML ACETONE ONCE, Promoter: CROTON OIL, 8001-28-3) read?
Answer: 63%, 71%, -13%, not significant and 89%, 70%, 21%, not significant

Question: Which “tumour outcome (control, treated, inhibition, significance)” value (Carcinogen: N-NITROSOMETHYLBENZYLAMINE [937-40-6], Dose [Inhibitor]: 0, 500 PPM FOR 7 WK BEGINNING 1 WK PRIOR TO FIRST CARCINOGEN DOSE (STUDY DURATION: 40 WK), Route [Inhibitor]: SUBCUTANEOUS, Species: RAT, Strain/Sex: F344/MALE, Target Tissue: Type of Lesion: ESOPHAGUS: SQUAMOUS CELL PAPILLOMA, Dose [Carcinogen]: 1 MG/KG 3X/WK FOR 5 WK (STUDY DURATION: 40 WK), Promoter: NONE) does the source give for COc1cc(/C=C/C(=O)CC(=O)/C=C/c2ccc(O)c(OC)c2)ccc1O here?
Answer: 62.5%, 39.3%, 37.1%, not significant and 4.17%, 0%, 100%, not significant

Question: What about the “tumour outcome (control, treated, inhibition, significance)” value (Carcinogen: N-NITROSOMETHYLBENZYLAMINE [937-40-6], Dose [Inhibitor]: 0, 500 PPM FOR 33 WK BEGINNING 1 WK POST LAST CARCINOGEN DOSE (STUDY DURATION: 40 WK), Route [Inhibitor]: SUBCUTANEOUS, Species: RAT, Strain/Sex: F344/MALE, Target Tissue: Type of Lesion: ESOPHAGUS: SQUAMOUS CELL PAPILLOMA, Dose [Carcinogen]: 1 MG/KG 3X/WK FOR 5 WK (STUDY DURATION: 40 WK), Promoter: NONE) of the same compound?
Answer: 62.5%, 33.3%, 46.7%, p<0.01 and 4.17%, 0%, 100%, not significant

Question: Which “tumour outcome (control, treated, inhibition, significance)” value (Carcinogen: 7,12-DIMETHYLBENZ[A]ANTHRACENE, 57-97-6, Dose [Inhibitor]: 782 MG/KG DIET DAILY STARTING 7 D AFTER CARCINOGEN ADMINISTRATION AND CONTINUING THROUGH THE END OF THE STUDY (STUDY DUR, Route [Inhibitor]: ORAL, Species: RAT, Strain/Sex: SPRAGUE-DAWLEY/FEMALE, Target Tissue: Type of Lesion: MAMMARY GLAND: TUMOR, Dose [Carcinogen]: 20 MG ONCE, Promoter: NONE USED) does the source give for CC1=C(/C=C/C(C)=C/C=C/C(C)=C/C(=O)Nc2ccc(O)cc2)C(C)(C)CCC1 here?
Answer: 91%, 85%, 7%, p<0.05 and 26%, 6%, 77%, p<0.01

Question: What about the “tumour outcome (control, treated, inhibition, significance)” value (Carcinogen: N-METHYL-N-NITROSOUREA, 684-93-5, Dose [Inhibitor]: 782 MG/KG DIET DAILY STARTING 7 D AFTER CARCINOGEN ADMINISTRATION AND CONTINUING THROUGH THE END OF THE STUDY (STUDY DUR, Route [Inhibitor]: ORAL, Species: RAT, Strain/Sex: SPRAGUE-DAWLEY/FEMALE, Target Tissue: Type of Lesion: MAMMARY GLAND: TUMOR, Dose [Carcinogen]: 50 MG/KG BW ONCE, Promoter: NONE USED) of the same compound?
Answer: 100%, 92%, 8%, p<0.05 and 18%, 2%, 89%, p<0.01
